# In publication PMC4336329 (PLoS ONE, 2015):
# About 2,200 (0.71%) of roughly 310,000 compounds showed an effect of 50% or more. Effects have a minus sign here. The list shows a part of the results.
# Target: human ether-à-go-go-related gene (hERG) potassium channel (human, UniProt Q12809)
# Experiment: primary screen, population patch clamp on CHO cells stably expressing hERG
# Sequence of human ether-à-go-go-related gene (hERG) potassium channel (Q12809 whole entry, looked up): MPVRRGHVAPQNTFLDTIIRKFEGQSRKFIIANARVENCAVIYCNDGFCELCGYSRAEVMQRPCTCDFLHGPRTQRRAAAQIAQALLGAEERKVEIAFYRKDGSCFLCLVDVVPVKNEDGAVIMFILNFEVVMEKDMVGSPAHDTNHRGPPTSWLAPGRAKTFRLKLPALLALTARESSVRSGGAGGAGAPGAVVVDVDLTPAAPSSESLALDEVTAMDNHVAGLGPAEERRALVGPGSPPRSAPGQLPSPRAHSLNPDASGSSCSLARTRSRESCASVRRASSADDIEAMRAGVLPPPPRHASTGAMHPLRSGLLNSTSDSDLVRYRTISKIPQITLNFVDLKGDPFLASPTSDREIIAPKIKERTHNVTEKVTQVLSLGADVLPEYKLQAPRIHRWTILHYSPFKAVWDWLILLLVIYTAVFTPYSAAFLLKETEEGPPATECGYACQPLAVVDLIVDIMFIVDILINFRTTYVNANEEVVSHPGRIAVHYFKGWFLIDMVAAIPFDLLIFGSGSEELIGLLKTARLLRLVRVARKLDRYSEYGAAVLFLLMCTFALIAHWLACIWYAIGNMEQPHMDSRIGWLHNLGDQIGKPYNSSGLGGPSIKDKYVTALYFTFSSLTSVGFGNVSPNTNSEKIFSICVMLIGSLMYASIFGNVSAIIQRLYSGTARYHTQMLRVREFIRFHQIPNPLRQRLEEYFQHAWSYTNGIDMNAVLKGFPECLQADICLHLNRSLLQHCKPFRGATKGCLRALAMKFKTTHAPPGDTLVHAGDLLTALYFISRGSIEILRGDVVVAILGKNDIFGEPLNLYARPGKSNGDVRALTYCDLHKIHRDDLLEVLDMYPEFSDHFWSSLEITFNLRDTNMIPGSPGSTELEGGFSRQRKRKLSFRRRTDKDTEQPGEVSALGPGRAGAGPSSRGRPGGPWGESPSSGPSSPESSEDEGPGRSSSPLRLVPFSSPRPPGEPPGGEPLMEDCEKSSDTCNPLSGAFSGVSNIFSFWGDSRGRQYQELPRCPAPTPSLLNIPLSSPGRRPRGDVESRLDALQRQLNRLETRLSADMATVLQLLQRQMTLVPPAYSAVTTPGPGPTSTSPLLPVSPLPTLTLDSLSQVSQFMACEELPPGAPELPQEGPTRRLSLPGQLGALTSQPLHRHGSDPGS
row,SMILES,"hERG current change (%, negative = inhibition) at 1uM [%]"
1,CCOc1ccccc1-n1nnnc1SCC(=O)Nc1cc(C)on1,-5.24
2,CN(CC(=O)Nc1c(Cl)cccc1Cl)C(=O)CCNS(=O)(=O)c1ccccc1C(F)(F)F,12.1
3,CC1(C2CC2)NC(=O)N(CC(=O)Nc2cc(S(=O)(=O)N3CCCCC3)ccc2Cl)C1=O (centres unmarked),7.33
4,COc1ccc(NC(=O)COc2coc(CN3c4ccccc4CC3C)cc2=O)cc1 (centres unmarked),3.07
5,COc1ccc(CCNC(=O)COC(=O)c2cc(S(=O)(=O)NCc3ccccc3)ccc2O)cc1OC,-1.16
6,O=C(NCc1nnc(SCc2ccccc2)n1-c1ccccc1)C12CC3CC(CC(C3)C1)C2,14.1
7,CC(C)c1ccc(C(=O)CSc2ncn[nH]2)cc1,10.6
8,Cc1cccc(Cn2cc(SCC(=O)Nc3nccs3)c3ccccc32)c1,8.48
9,C/C(Cn1nnc2ccccc21)=N/OC(=O)c1c(F)cccc1F,13.4
10,CCOc1c2ccc(C(=O)NCc3cc(C(F)(F)F)cc(C(F)(F)F)c3)cc2nn1C,15.2
11,CN(CC1CCOCC1)C(=O)CC1C(=O)NCCN1CC(c1ccccc1)c1ccccc1 (centres unmarked),8.73
12,CCc1ccc(NC(=O)CSc2nnc(-c3cnccn3)n2C)cc1,12.7
13,Cc1ncc([N+](=O)[O-])n1CC(=O)NC1CCCCCC1,1.93
14,O=S1(=O)CCC(=Nc2ccc(Cl)cc2)c2ccsc21,8.83
15,O=C(O)COc1ccc(S(=O)(=O)N2CCCC2)cc1,16.2
16,Cc1cc(C)nc(SCCn2c(N3CCCCC3)nc3c2c(=O)n(C)c(=O)n3C)n1,15.6
17,COc1cc(C(=O)NNC(=O)c2ccoc2C)cc(OC)c1OC,14.6
18,Cc1cc2cc(CNC(=S)Nc3ccc(OC(F)F)cc3)ccc2[nH]1,13.1
19,CCOC(=O)c1ccccc1NC(=O)c1nc2nccc(C)n2n1,-4.25
20,COc1cccc(NC(=O)COC(=O)c2ccc(C)c(S(=O)(=O)N3CCCCC3)c2)c1,2.86
21,O=C(Oc1ccc(Br)cc1C(=O)/C=C/c1ccccc1F)c1ccco1,12.6
22,Cc1ccc(O)c(-c2[nH]ncc2C(=O)c2ccc(Cl)cc2)c1,14.5
23,COc1ccc(CC(=O)N(C)Cc2cccc(F)c2)cc1S(=O)(=O)N1CCOCC1,9.56

row,SMILES,"hERG current change (%, negative = inhibition) at 1uM [%]"
1,CCCCC(=O)N1CC(=O)Nc2ccc(F)cc2C1c1ccc(F)cc1 (centres unmarked),13.7
2,COc1ccc(-c2cc(N3C(=O)Nc4ccccc4N3O)n[nH]2)cc1OC,4.3
3,Cc1ccc(CNC(=S)N2CCOCC2)cc1,16.5
4,CCOc1[nH]n(-c2ccccc2)c(=O)c1C=Nc1ccc(OC)cc1,11.2
5,CC1CCCCC1NC(=O)COC(=O)/C=C/c1ccco1 (centres unmarked),2.83
6,Cc1cccc(NC(=O)C2CCN(S(=O)(=O)c3c(C)nn(C)c3C)CC2)n1,13.6
7,O=C(Nc1cc(Cl)ccc1-n1cncn1)c1cc(F)c(F)c(F)c1F,-8.93
8,Cc1c(C=O)c2ccccn2c1C(=O)c1ccccc1Cl,9.3
9,CC(=O)Nc1ccc2c(c1)nc(CCNC(=O)c1ccccc1)n2C,11.6
10,CC(C)c1ccc(C(=O)OCC(=O)NC2CCCC2)cc1,15.2
11,O=C(Nc1ccccc1C(F)(F)F)N1CCC(n2c(=O)[nH]c3ccccc32)CC1,7.45
12,O=C(Cn1nc(Cl)nc1Cl)Nc1ccccc1,2.75
13,COc1ccc(C(=O)Nc2ccc(S(=O)(=O)Nc3nccc(C)n3)cc2)cc1[N+](=O)[O-],14.2
14,CC(CCc1ccc(O)cc1)NCCc1ccc(O)c(O)c1.Cl (centres unmarked),2.55
15,CS(=O)(=O)NNC(=O)c1csc(Cc2c(Cl)sc3ccc(Cl)cc23)n1,13
16,CC(C)C(NC(=O)c1ccc(C(C)(C)C)cc1)C(=O)NCC(c1ccccc1)N(C)C (centres unmarked),5.09
17,Cc1cc(C)nc(SSc2nc(C)cc(C)n2)n1,12.8
18,O=C(NC(c1ccccc1)c1ccccn1)c1cccc([N+](=O)[O-])c1 (centres unmarked),12.3
19,COc1ccc(CCN2C(=O)CSC2c2ccc(OC)c(OC)c2)cc1OC (centres unmarked),8.99
20,Cn1cnnc1SCC(=O)Nc1ccc(S(=O)(=O)N2CCOCC2)cc1,6.46
21,CN1C(=O)C(=Cc2ccc(N(C)C)c([N+](=O)[O-])c2)C(=O)N(C)C1=O,2.88
22,COC(=O)CCC(=O)N1CCCC(CO)(Cc2ccccc2)C1 (centres unmarked),9.27
23,Cc1ccc(Cl)c(OCC(=O)Nc2ccccc2C(=O)NC2CC2)c1,11.7

row,SMILES,"hERG current change (%, negative = inhibition) at 1uM [%]"
1,Cc1ccc(NC(=O)COC(=O)C2CSC3(C)CCC(=O)N23)cc1S(=O)(=O)N1CCOCC1 (centres unmarked),0.667
2,CC(=O)Nc1sc2c(c1CN1CCN(C)CC1)CCCC2,4.81
3,CSc1ncccc1C(=O)OCC(=O)N1CC(=O)Nc2ccccc21,10.4
4,COc1ccc(-c2nnc(NC(=O)c3ccc4c(c3)OCCO4)o2)cc1,13.2
5,CC(NC(=O)c1cc(-c2ccccc2)nc2ccccc12)C1CCCO1 (centres unmarked),6.97
6,Nc1nonc1-n1nnc(C(=O)N/N=C/c2ccccc2O)c1CN1CCCC1,10.8
7,COCCCn1cnc2c(c1=O)c1nc3ccccc3nc1n2-c1ccc(C)cc1,8.35
8,C=CCNC(=O)c1ccccc1NC(=O)Cc1ccccc1[N+](=O)[O-],3.13
9,O=C1c2nc3ccccn3c2C(=O)N1Cc1ccccc1,11.8
10,O=C(CSc1n[nH]c(=O)[nH]c1=O)Nc1ccccc1C(=O)c1ccccc1,10.5
11,CCOC(=O)c1c(C)[nH]c(C(=O)CSc2nnc(C3CC3)n2N)c1C,9.07
12,CC(=O)Nc1nc(C)c(-c2csc([NH2+]c3ccc(S(N)(=O)=O)cc3)n2)s1.[Br-],9.67
13,CCN(CC)C(=O)c1ccccc1NS(C)(=O)=O,2.77
14,COc1ccccc1N=Nc1c(O)[nH]c(=S)[nH]c1=O,16
15,CC(=O)N1N=C(c2ccc3ccccc3c2)OC12CCCC2,5.76
16,Cc1ccc(C(=O)NCCCNC(=O)c2ccccc2F)cn1,14
17,Cc1cc(C)c(NC(=O)C(C)(C)C)c(Cl)c1,0.175
18,O=C(c1cc(COc2ccc(F)cc2Cl)on1)N1CCCCCC1,14.1
19,Cc1cccc(OCCC(=O)Nc2ccc(F)c(F)c2)c1,6.44
20,Cc1cc(SCC(=O)NN)c2cc(Br)ccc2n1,11.2
21,CC(=O)c1ccc(N2CCN(CCC#N)CC2)c(F)c1,4.12
22,CCn1c(NCc2ccccc2Cl)nc2ccccc21,12.9
23,Cc1nc(NC(=O)COC(=O)c2cc3c(s2)CCC(C)C3)c(Cl)cc1Cl (centres unmarked),6.35

row,SMILES,"hERG current change (%, negative = inhibition) at 1uM [%]"
1,O=C(COC(=O)c1cc(Cl)ccc1Cl)Nc1ccc2[nH]c(=O)[nH]c2c1,-4.65
2,C[C@H]1C=C(C(=O)NCc2ccccc2)O[C@@H](OCc2ccc(CO)cc2)C1,-0.188
3,Cc1cc(N2CCC(C)CC2)n2ncc(-c3ccccc3)c2n1,3.83
4,CC(Oc1ccccc1)C(=O)N=C1SC2CS(=O)(=O)CC2N1c1ccccc1 (centres unmarked),35.1
5,COCC(C)OC(=O)/C(C#N)=C\c1coc2ccc(C)cc2c1=O (centres unmarked),3.46
6,O=C(c1ccc(C(F)(F)F)cc1)C1CCCN(C(=O)CCc2ccncc2)C1 (centres unmarked),-31.1
7,O=C(C(=S)N1CCOCC1)c1c[nH]c2ccccc12,2.69
8,O=C(O)CC(NS(=O)(=O)c1ccc(Br)cc1)c1ccco1 (centres unmarked),-5.87
9,CCn1c(-c2ccc(F)cc2)cnc1SCC(=O)N1CCc2ccccc21,7.5
10,O=C(Nc1ccccc1)NC1CS(=O)(=O)CC1O (centres unmarked),6.66
11,CNC(=O)c1ccccc1Sc1ccccc1CO,12.4
12,CCn1cc(CN2CCc3c([nH]c4ccccc34)C2c2cccc(OC)c2OC)c(C)n1 (centres unmarked),13.3
13,CCOC(=O)C1CCN(c2nc3c(C)cccn3c(=O)c2/C=C(\C#N)S(=O)(=O)c2ccccc2)CC1,2.92
14,Cc1cc(C)c(S(=O)(=O)Nc2ncccc2C)c(C)c1,8.56
15,COc1ccc(C(CNC(=O)c2ccc(Cl)c(S(=O)(=O)N3CCCC3)c2)N2CCCC2)cc1 (centres unmarked),-32.1
16,NS(=O)(=O)c1ccc(NC(=S)NC(=O)c2ccc(Br)o2)cc1,7.02
17,Cc1cc(C(=O)COC(=O)/C=C/c2cccc(F)c2)c(C)n1C,9.77
18,Cc1[nH]c2ccccc2c1C1=NNC(=Nc2ccc(F)cc2)SC1,12
19,O=C(NC1(C(F)(F)F)NC(=O)N(c2ccc(F)cc2)C1=O)c1ccncc1 (centres unmarked),-10.4
20,O=C(Cc1ccc(Cl)cc1Cl)NC1CCCCCC1,-0.129
